Changes are numbered by the printed parent chain; changes in the protein carry UniProt numbers. The list shows a part of the results.
T1: RBFOX1 RRM RbFoxmut (Fox-RRM*) (Homo sapiens, UniProt Q9NWB1 109-208, R118D;E147R;N151S;E152T)
T1 sequence: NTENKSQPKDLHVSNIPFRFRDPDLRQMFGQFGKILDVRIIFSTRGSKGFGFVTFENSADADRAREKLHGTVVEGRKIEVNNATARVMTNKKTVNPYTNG

B1: UCAUCCA (DNA:RNA)
RNA: GGGAGACCGGAAUUCAGAUUGUCCUCAUCCAUUAAAUCCCGUCGUAGCCACCA
DNA 1: CAATCTGAATTCCGGTCTCCC
DNA 2: TGGTGGCTACGACGGGATT
B2: AAACGCC (DNA:RNA)
RNA: B1 RNA with U25A, C26A, U28C, C29G, A31C
DNA 1: CAATCTGAATTCCGGTCTCCC
DNA 2: TGGTGGCTACGACGGGATT
B3: GGACAAA (DNA:RNA)
RNA: B1 RNA with U25G, C26G, U28C, C29A, C30A
DNA 1: CAATCTGAATTCCGGTCTCCC
DNA 2: TGGTGGCTACGACGGGATT
B4: AAGAUGA (DNA:RNA)
RNA: B1 RNA with U25A, C26A, A27G, U28A, C29U, C30G
DNA 1: CAATCTGAATTCCGGTCTCCC
DNA 2: TGGTGGCTACGACGGGATT
B5: AGGUGAC (DNA:RNA)
RNA: B1 RNA with U25A, C26G, A27G, C29G, C30A, A31C
DNA 1: CAATCTGAATTCCGGTCTCCC
DNA 2: TGGTGGCTACGACGGGATT
B6: GGUUGGC (DNA:RNA)
RNA: B1 RNA with U25G, C26G, A27U, C29G, C30G, A31C
DNA 1: CAATCTGAATTCCGGTCTCCC
DNA 2: TGGTGGCTACGACGGGATT
B7: UGGUGGG (DNA:RNA)
RNA: B1 RNA with C26G, A27G, C29G, C30G, A31G
DNA 1: CAATCTGAATTCCGGTCTCCC
DNA 2: TGGTGGCTACGACGGGATT
B8: UUCCAAA (DNA:RNA)
RNA: B1 RNA with C26U, A27C, U28C, C29A, C30A
DNA 1: CAATCTGAATTCCGGTCTCCC
DNA 2: TGGTGGCTACGACGGGATT
B9: CAGCUCG (DNA:RNA)
RNA: B1 RNA with U25C, C26A, A27G, U28C, C29U, A31G
DNA 1: CAATCTGAATTCCGGTCTCCC
DNA 2: TGGTGGCTACGACGGGATT
B10: UCGCGCG (DNA:RNA)
RNA: B1 RNA with A27G, U28C, C29G, A31G
DNA 1: CAATCTGAATTCCGGTCTCCC
DNA 2: TGGTGGCTACGACGGGATT
B11: GGGCCAU (DNA:RNA)
RNA: B1 RNA with U25G, C26G, A27G, U28C, C30A, A31U
DNA 1: CAATCTGAATTCCGGTCTCCC
DNA 2: TGGTGGCTACGACGGGATT
B12: AUCAACC (DNA:RNA)
RNA: B1 RNA with U25A, C26U, A27C, U28A, C29A, A31C
DNA 1: CAATCTGAATTCCGGTCTCCC
DNA 2: TGGTGGCTACGACGGGATT
B13: CGUCGAU (DNA:RNA)
RNA: GGGAGACCGGAAUUCAGAUUGUCCCGUCGAUUUAAAUCCCGUCGUAGCCACCA
DNA 1: CAATCTGAATTCCGGTCTCCC
DNA 2: TGGTGGCTACGACGGGATT
B14: UGACGCU (DNA:RNA)
RNA: B13 RNA with C25U, U27A, A30C
DNA 1: CAATCTGAATTCCGGTCTCCC
DNA 2: TGGTGGCTACGACGGGATT
B15: UCACGUU (DNA:RNA)
RNA: B13 RNA with C25U, G26C, U27A, A30U
DNA 1: CAATCTGAATTCCGGTCTCCC
DNA 2: TGGTGGCTACGACGGGATT
B16: AUCGCAC (DNA:RNA)
RNA: B13 RNA with C25A, G26U, U27C, C28G, G29C, U31C
DNA 1: CAATCTGAATTCCGGTCTCCC
DNA 2: TGGTGGCTACGACGGGATT
B17: GCACUAC (DNA:RNA)
RNA: B13 RNA with C25G, G26C, U27A, G29U, U31C
DNA 1: CAATCTGAATTCCGGTCTCCC
DNA 2: TGGTGGCTACGACGGGATT
B18: AGUAGCA (DNA:RNA)
RNA: B13 RNA with C25A, C28A, A30C, U31A
DNA 1: CAATCTGAATTCCGGTCTCCC
DNA 2: TGGTGGCTACGACGGGATT
B19: UGCUGGC (DNA:RNA)
RNA: B13 RNA with C25U, U27C, C28U, A30G, U31C
DNA 1: CAATCTGAATTCCGGTCTCCC
DNA 2: TGGTGGCTACGACGGGATT
B20: UGAGCGC (DNA:RNA)
RNA: B1 RNA with C26G, U28G, C30G, A31C
DNA 1: CAATCTGAATTCCGGTCTCCC
DNA 2: TGGTGGCTACGACGGGATT
B21: CGUUGGG (DNA:RNA)
RNA: B13 RNA with C28U, A30G, U31G
DNA 1: CAATCTGAATTCCGGTCTCCC
DNA 2: TGGTGGCTACGACGGGATT
B22: GCGUUCC (DNA:RNA)
RNA: B1 RNA with U25G, A27G, C29U, A31C
DNA 1: CAATCTGAATTCCGGTCTCCC
DNA 2: TGGTGGCTACGACGGGATT
B23: CCAGGUA (DNA:RNA)
RNA: B1 RNA with U25C, U28G, C29G, C30U
DNA 1: CAATCTGAATTCCGGTCTCCC
DNA 2: TGGTGGCTACGACGGGATT
B24: GUAUAGC (DNA:RNA)
RNA: B1 RNA with U25G, C26U, C29A, C30G, A31C
DNA 1: CAATCTGAATTCCGGTCTCCC
DNA 2: TGGTGGCTACGACGGGATT
B25: CCAACCU (DNA:RNA)
RNA: B1 RNA with U25C, U28A, A31U
DNA 1: CAATCTGAATTCCGGTCTCCC
DNA 2: TGGTGGCTACGACGGGATT
B26: CGGCAUA (DNA:RNA)
RNA: B13 RNA with U27G, G29A, A30U, U31A
DNA 1: CAATCTGAATTCCGGTCTCCC
DNA 2: TGGTGGCTACGACGGGATT
B27: GUCCUGC (DNA:RNA)
RNA: B13 RNA with C25G, G26U, U27C, G29U, A30G, U31C
DNA 1: CAATCTGAATTCCGGTCTCCC
DNA 2: TGGTGGCTACGACGGGATT
B28: AAAAUAC (DNA:RNA)
RNA: B13 RNA with C25A, G26A, U27A, C28A, G29U, U31C
DNA 1: CAATCTGAATTCCGGTCTCCC
DNA 2: TGGTGGCTACGACGGGATT
B29: AGUACGG (DNA:RNA)
RNA: B13 RNA with C25A, C28A, G29C, A30G, U31G
DNA 1: CAATCTGAATTCCGGTCTCCC
DNA 2: TGGTGGCTACGACGGGATT
B30: CCAAGGA (DNA:RNA)
RNA: B1 RNA with U25C, U28A, C29G, C30G
DNA 1: CAATCTGAATTCCGGTCTCCC
DNA 2: TGGTGGCTACGACGGGATT
B31: AGGGGUG (DNA:RNA)
RNA: B13 RNA with C25A, U27G, C28G, A30U, U31G
DNA 1: CAATCTGAATTCCGGTCTCCC
DNA 2: TGGTGGCTACGACGGGATT

biological target: T1, RBFOX1 RRM RbFoxmut (Fox-RRM*); experiment: EMSA; HiTS-Eq, 1 nM pool, 10 min; buffer printed only for the single-RNA assays: 10 mM Tris pH 7.5, 150 mM NaCl, 3.4 mM EDTA, 0.001% NP-40, 30 C; settings: tags: His6 N-terminal (pET28a); label: 5' 32P
Procedure, shortened: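 These values rest on relative association constants, computed from read-count changes of each RNA species versus the control reaction and normalised to the cognate motif. Reads came from free RNA recovered by 8% native PAGE after purified RbFox RRM (wild type or mutant) at increasing concentrations was equilibrated for 10 min in 50 µL with 1 nM of a 5′-radiolabelled pool with 7 randomized nucleotides and DNA-annealed flanks.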

Row | Binder | binding signal
1 | B1 | 0.112 KA relative to UGCAUGU
2 | B2 | 0.0578 KA relative to UGCAUGU
3 | B3 | 0.0761 KA relative to UGCAUGU
4 | B4 | 0.0739 KA relative to UGCAUGU
5 | B5 | 0.0863 KA relative to UGCAUGU
6 | B6 | 0.111 KA relative to UGCAUGU
7 | B7 | 0.0882 KA relative to UGCAUGU
8 | B8 | 0.0776 KA relative to UGCAUGU
9 | B9 | 0.122 KA relative to UGCAUGU
10 | B10 | 0.152 KA relative to UGCAUGU
11 | B11 | 0.0811 KA relative to UGCAUGU
12 | B12 | 0.0605 KA relative to UGCAUGU
13 | B13 | 0.0773 KA relative to UGCAUGU
14 | B14 | 0.0832 KA relative to UGCAUGU
15 | B15 | 0.103 KA relative to UGCAUGU
16 | B16 | 0.1 KA relative to UGCAUGU

Row | Binder | binding signal
17 | B17 | 0.0875 KA relative to UGCAUGU
18 | B18 | 0.159 KA relative to UGCAUGU
19 | B19 | 0.119 KA relative to UGCAUGU
20 | B20 | 0.0889 KA relative to UGCAUGU
21 | B21 | 0.0874 KA relative to UGCAUGU
22 | B22 | 0.0604 KA relative to UGCAUGU
23 | B23 | 0.147 KA relative to UGCAUGU
24 | B24 | 0.147 KA relative to UGCAUGU
25 | B25 | 0.0994 KA relative to UGCAUGU
26 | B26 | 0.108 KA relative to UGCAUGU
27 | B27 | 0.104 KA relative to UGCAUGU
28 | B28 | 0.076 KA relative to UGCAUGU
29 | B29 | 0.107 KA relative to UGCAUGU
30 | B30 | 0.0815 KA relative to UGCAUGU
31 | B31 | 0.241 KA relative to UGCAUGU

From paper PMC9911399, “Two distinct binding modes provide the RNA-binding protein RbFox with extraordinary sequence specificity”
